Test results reported in article PMC6302113.
Results are given in words; binding and its absence hold for the method and conditions named. In cells and extracts the contact can be indirect. Some results given as binding are weak or reduced against the parent protein; the word gives no strength. Where a sequence is shown, tags or fusion partners need not be part of it.

Chains of the proteins cited; added tags and fusions are not shown. Residues count along the entry.
UniProt P14625, residues 22-803: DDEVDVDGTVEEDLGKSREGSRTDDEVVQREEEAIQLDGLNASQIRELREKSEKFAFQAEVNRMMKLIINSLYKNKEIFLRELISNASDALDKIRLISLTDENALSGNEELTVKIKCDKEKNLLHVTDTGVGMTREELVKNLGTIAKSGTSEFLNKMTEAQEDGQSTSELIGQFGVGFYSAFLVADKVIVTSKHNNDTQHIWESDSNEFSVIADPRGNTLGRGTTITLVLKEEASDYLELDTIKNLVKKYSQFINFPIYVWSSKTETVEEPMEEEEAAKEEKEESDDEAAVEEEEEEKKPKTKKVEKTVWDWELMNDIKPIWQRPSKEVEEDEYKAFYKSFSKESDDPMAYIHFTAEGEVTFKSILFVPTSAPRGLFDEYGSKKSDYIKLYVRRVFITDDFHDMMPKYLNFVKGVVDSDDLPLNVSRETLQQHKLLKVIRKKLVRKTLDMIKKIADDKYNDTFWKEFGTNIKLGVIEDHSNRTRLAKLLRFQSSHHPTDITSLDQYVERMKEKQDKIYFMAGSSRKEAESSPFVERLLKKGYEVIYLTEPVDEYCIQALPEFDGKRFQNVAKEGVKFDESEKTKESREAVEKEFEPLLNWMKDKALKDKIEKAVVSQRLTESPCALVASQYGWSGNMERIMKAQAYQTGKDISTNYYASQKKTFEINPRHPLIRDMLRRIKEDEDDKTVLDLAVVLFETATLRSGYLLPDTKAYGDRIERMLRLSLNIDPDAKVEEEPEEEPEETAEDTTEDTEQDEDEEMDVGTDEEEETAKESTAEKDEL
UniProt Q9UBS4, residues 23-358: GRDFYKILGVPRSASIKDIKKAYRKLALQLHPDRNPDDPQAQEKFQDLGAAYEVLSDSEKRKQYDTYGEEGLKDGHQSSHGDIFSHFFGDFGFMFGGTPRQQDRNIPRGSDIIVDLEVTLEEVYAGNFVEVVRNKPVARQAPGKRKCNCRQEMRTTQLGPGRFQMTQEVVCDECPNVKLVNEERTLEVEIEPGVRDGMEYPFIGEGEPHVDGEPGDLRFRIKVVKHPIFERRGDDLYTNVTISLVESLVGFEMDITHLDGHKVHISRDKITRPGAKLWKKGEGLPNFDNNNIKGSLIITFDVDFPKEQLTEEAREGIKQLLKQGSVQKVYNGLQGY
UniProt P11021, residues 19-654: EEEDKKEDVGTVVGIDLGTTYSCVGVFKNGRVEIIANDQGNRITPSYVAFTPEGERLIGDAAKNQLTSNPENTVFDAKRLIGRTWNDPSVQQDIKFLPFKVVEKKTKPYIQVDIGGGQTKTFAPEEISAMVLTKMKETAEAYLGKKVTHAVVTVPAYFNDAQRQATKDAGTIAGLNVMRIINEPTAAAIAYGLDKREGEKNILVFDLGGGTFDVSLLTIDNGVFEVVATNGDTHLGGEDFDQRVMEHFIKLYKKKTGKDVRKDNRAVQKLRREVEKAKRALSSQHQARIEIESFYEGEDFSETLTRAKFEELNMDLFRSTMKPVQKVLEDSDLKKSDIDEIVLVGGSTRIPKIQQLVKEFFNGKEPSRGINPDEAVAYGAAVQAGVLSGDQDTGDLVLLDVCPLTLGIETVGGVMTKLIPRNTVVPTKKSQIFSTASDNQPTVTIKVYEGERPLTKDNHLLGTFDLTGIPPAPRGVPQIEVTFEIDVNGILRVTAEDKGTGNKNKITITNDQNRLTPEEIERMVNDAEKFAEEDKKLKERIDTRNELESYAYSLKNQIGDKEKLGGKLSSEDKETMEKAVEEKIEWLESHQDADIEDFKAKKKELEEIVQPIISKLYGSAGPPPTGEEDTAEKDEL

Columns and labels:
[1] = target: T1, IL-22 binding protein isoform-2 (IL-22BPi2), C-terminally myc-FLAG-tagged (human) (UniProt Q969J5); experiment: co-IP; anti-FLAG resin from lysates of transiently transfected cells, immunoblot for endogenous ER chaperones (Supplementary Figure 5; Figure 4C: HEK293 treated with 100 ng/ml Mut SubAB or SubAB for 3 h, blot for GRP78)
T1 sequence: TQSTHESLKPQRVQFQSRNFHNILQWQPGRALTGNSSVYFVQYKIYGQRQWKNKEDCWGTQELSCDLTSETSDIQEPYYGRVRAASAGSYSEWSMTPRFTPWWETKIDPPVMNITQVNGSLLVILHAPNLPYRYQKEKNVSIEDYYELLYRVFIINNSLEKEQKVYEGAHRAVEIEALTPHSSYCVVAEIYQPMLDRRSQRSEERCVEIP

[2] = target: T2, IL-22 binding protein isoform-1 (IL-22BPi1), C-terminally myc-FLAG-tagged (human) (UniProt Q969J5); experiment: as above
T2 sequence: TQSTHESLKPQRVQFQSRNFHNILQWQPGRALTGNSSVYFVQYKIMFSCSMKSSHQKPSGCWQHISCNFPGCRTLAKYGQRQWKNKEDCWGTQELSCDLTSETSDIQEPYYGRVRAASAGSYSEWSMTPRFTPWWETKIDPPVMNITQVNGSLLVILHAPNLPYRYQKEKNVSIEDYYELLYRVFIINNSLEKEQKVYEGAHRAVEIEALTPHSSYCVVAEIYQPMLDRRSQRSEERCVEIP

[3] = target: T3, IL-22 binding protein isoform-3 (IL-22BPi3), FLAG-tagged (human) (UniProt Q969J5); experiment: as above
T3 sequence: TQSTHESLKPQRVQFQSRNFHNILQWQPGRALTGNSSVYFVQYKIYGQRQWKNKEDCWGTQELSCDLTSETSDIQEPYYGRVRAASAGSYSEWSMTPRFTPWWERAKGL

[4] = target: T2, IL-22 binding protein isoform-1 (IL-22BPi1), C-terminally myc-FLAG-tagged (human); experiment: co-IP; HEK293 transiently co-transfected, lysed after 24 h; FLAG resin to precipitate IL-22BP isoforms or IL-2EX4; immunoblot for GRP94 and FLAG
S-tagged GRP94 = S-tagged GRP94 (UniProt P14625); experiment: co-IP; reverse IP: HEK293 transiently co-transfected, lysed after 24 h; S-tag (S-protein) agarose to precipitate S-tagged GRP94; immunoblot for GRP94 and FLAG
[5] = target: T2, IL-22 binding protein isoform-1 (IL-22BPi1), C-terminally myc-FLAG-tagged (human); experiment: co-IP; HEK293 co-transfected with myc-FLAG IL-22BPi1 and inducible FLAG-only IL-22BPi2 (Tet-Express activator for 24 h); anti-Myc agarose, then FLAG immunoprecipitation of the flow-through; immunoblot for FLAG

Molecule | binding [1] | binding [2] | also measured
ERdj3, endogenous (from UniProt Q9UBS4 23-358) | binds | binds | –
GRP78, full-length endogenous (from UniProt P11021 19-654) | binds | binds | binding [3]: no binding
GRP94, endogenous (from UniProt P14625 22-803) | – | binds | –
S-tagged GRP94 (from UniProt P14625 22-803) | – | – | binding [4]: binds
GRP170, endogenous (protein, UniProt Q9Y4L1 33-999) LAVMSVDLGSESMKVAIVKPGVPMEIVLNKESRRKTPVIVTLKENERFFGDSAASMAIKNPKATLRYFQHLLGKQADNPHVALYQARFPEHELTFDPQRQTVHFQISSQLQFSPEEVLGMVLNYSRSLAEDFAEQPIKDAVITVPVFFNQAERRAVLQAARMAGLKVLQLINDNTATALSYGVFRRKDINTTAQNIMFYDMGSGSTVCTIVTYQMVKTKEAGMQPQLQIRGVGFDRTLGGLEMELRLRERLAGLFNEQRKGQRAKDVRENPRAMAKLLREANRLKTVLSANADHMAQIEGLMDDVDFKAKVTRVEFEELCADLFERVPGPVQQALQSAEMSLDEIEQVILVGGATRVPRVQEVLLKAVGKEELGKNINADEAAAMGAVYQAAALSKAFKVKPFVVRDAVVYPILVEFTREVEEEPGIHSLKHNKRVLFSRMGPYPQRKVITFNRYSHDFNFHINYGDLGFLGPEDLRVFGSQNLTTVKLKGVGDSFKKYPDYESKGIKAHFNLDESGVLSLDRVESVFETLVEDSAEEESTLTKLGNTISSLFGGGTTPDAKENGTDTVQEEEESPAEGSKDEPGEQVELKEEAEAPVEDGSQPPPPEPKGDATPEGEKATEKENGDKSEAQKPSEKAEAGPEGVAPAPEGEKKQKPARKRRMVEEIGVELVVLDLPDLPEDKLAQSVQKLQDLTLRDLEKQEREKAANSLEAFIFETQDKLYQPEYQEVSTEEQREEISGKLSAASTWLEDEGVGATTVMLKEKLAELRKLCQGLFFRVEERKKWPERLSALDNLLNHSSMFLKGARLIPEMDQIFTEVEMTTLEKVINETWAWKNATLAEQAKLPATEKPVLLSKDIEAKMMALDREVQYLLNKAKFTKPRPRPKDKNGTRAEPPLNASASDQGEKVIPPAGQTEDAEPISEPEKVETGSEPGDTEPLELGGPGAEPEQKEQSTGQKRPLKNDEL | binds | binds | –
calnexin, endogenous (protein, UniProt P27824 21-592) HDGHDDDVIDIEDDLDDVIEEVEDSKPDTTAPPSSPKVTYKAPVPTGEVYFADSFDRGTLSGWILSKAKKDDTDDEIAKYDGKWEVEEMKESKLPGDKGLVLMSRAKHHAISAKLNKPFLFDTKPLIVQYEVNFQNGIECGGAYVKLLSKTPELNLDQFHDKTPYTIMFGPDKCGEDYKLHFIFRHKNPKTGIYEEKHAKRPDADLKTYFTDKKTHLYTLILNPDNSFEILVDQSVVNSGNLLNDMTPPVNPSREIEDPEDRKPEDWDERPKIPDPEAVKPDDWDEDAPAKIPDEEATKPEGWLDDEPEYVPDPDAEKPEDWDEDMDGEWEAPQIANPRCESAPGCGVWQRPVIDNPNYKGKWKPPMIDNPSYQGIWKPRKIPNPDFFEDLEPFRMTPFSAIGLELWSMTSDIFFDNFIICADRRIVDDWANDGWGLKKAADGAAEPGVVGQMIEAAEERPWLWVVYILTVALPVFLVILFCCSGKKQTSGMEYKKTDAPQPDVKEEEEEKEEEKDKGDEEEEGEEKLEEKQKSDAEEDGGTVSQEEEDRKPKAEEDEILNRSPRNRKPRRE | binds | binds | –
IL-22 binding protein isoform-1 (IL-22BPi1), C-terminally myc-FLAG-tagged (protein, UniProt Q969J5 22-263) TQSTHESLKPQRVQFQSRNFHNILQWQPGRALTGNSSVYFVQYKIMFSCSMKSSHQKPSGCWQHISCNFPGCRTLAKYGQRQWKNKEDCWGTQELSCDLTSETSDIQEPYYGRVRAASAGSYSEWSMTPRFTPWWETKIDPPVMNITQVNGSLLVILHAPNLPYRYQKEKNVSIEDYYELLYRVFIINNSLEKEQKVYEGAHRAVEIEALTPHSSYCVVAEIYQPMLDRRSQRSEERCVEIP | – | – | binding (S-tagged GRP94): binds
IL-22BPi2 with only a FLAG tag, from an inducible pTRE3G-based vector (protein, UniProt Q969J5-2 22-231) TQSTHESLKPQRVQFQSRNFHNILQWQPGRALTGNSSVYFVQYKIYGQRQWKNKEDCWGTQELSCDLTSETSDIQEPYYGRVRAASAGSYSEWSMTPRFTPWWETKIDPPVMNITQVNGSLLVILHAPNLPYRYQKEKNVSIEDYYELLYRVFIINNSLEKEQKVYEGAHRAVEIEALTPHSSYCVVAEIYQPMLDRRSQRSEERCVEIP | – | – | binding [5]: no binding
IL-22 binding protein isoform-3 (IL-22BPi3), FLAG-tagged (protein, UniProt Q969J5-3 22-130) TQSTHESLKPQRVQFQSRNFHNILQWQPGRALTGNSSVYFVQYKIYGQRQWKNKEDCWGTQELSCDLTSETSDIQEPYYGRVRAASAGSYSEWSMTPRFTPWWERAKGL | – | – | binding (S-tagged GRP94): no binding
